The campaign covered roughly 310,000 compounds. About 14,000 (4.5%) showed an effect of 50% or more. The effect is printed as a negative number. Some of the results follow.
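Also: peak tail current of the secondary pulse compared with the same well before compound.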

The target of this experiment is human ether-à-go-go-related gene (hERG) potassium channel (human, UniProt Q12809). Nature of the experiment: primary screen, population patch clamp on CHO cells stably expressing hERG.
Sequence of human ether-à-go-go-related gene (hERG) potassium channel (Q12809 whole entry, looked up): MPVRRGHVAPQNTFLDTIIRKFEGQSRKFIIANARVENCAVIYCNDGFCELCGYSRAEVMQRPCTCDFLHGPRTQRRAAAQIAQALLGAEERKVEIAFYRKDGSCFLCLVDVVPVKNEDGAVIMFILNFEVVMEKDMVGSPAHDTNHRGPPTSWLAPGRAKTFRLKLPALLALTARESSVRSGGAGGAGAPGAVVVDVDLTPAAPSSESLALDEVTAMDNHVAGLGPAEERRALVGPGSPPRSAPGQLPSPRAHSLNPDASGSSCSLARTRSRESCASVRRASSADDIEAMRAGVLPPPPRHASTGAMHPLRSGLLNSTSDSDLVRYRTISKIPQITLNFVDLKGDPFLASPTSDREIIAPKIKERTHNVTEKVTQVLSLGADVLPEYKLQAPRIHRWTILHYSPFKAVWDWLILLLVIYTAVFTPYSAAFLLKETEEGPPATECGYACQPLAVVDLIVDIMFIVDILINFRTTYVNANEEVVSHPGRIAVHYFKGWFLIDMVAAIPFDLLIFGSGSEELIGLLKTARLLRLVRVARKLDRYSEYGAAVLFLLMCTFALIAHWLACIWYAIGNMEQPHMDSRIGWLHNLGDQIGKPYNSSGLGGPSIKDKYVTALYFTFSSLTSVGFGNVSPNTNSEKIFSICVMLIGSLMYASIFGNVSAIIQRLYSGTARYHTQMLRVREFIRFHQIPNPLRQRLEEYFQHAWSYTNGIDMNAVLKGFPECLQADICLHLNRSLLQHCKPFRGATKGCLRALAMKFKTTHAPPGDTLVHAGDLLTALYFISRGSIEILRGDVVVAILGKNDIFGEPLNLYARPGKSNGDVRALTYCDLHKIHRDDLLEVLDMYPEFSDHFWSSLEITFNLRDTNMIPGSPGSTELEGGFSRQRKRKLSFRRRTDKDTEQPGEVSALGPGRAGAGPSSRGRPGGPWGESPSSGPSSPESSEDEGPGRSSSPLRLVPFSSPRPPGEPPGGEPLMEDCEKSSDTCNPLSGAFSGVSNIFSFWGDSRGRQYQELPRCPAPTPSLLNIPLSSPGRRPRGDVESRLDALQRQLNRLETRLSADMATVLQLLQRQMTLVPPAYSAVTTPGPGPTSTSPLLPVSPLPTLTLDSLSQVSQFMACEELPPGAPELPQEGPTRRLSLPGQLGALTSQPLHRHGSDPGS
Consider `COc1ccc2occ(C(=O)c3ccc(N)cc3)c2c1`, for which the “hERG current change (%, negative = inhibition) at 10uM” value came out at 2.02%. Then `Cc1cccc(-n2nc(C(=O)Nc3ccccc3)n3c(=O)cc(-c4ccccc4)nc23)c1`, with 4.51%. The value for `CC(=O)Oc1ccc(-c2ccc(C(=O)Nc3cccc(S(=O)(=O)N4CCOCC4)c3)cc2)cc1` was 26.5%; that for `Cc1cc(C)cc(C(=O)OCC(=O)NCCNC(=O)COC(=O)c2cc(C)cc(C)c2)c1` was 14.2%. With `Clc1ccc(Nc2ncnc3c2nnn3Cc2ccccc2)cc1`, the “hERG current change (%, negative = inhibition) at 10uM” value is on record as -2.53%. The value for `C/C(=N\NC(=O)c1ccc(Cn2cc(Br)cn2)o1)c1cccc(NC(=O)C(C)C)c1` was -19.1%. Then `CNc1oc(C)nc1S(=O)(=O)c1ccc(C)cc1`, with 10.6%.

Take `COc1ccccc1NS(=O)(=O)c1ccc2nc(CCl)[nH]c2c1`: the “hERG current change (%, negative = inhibition) at 10uM” value is recorded as 13.2%. The value for `COc1ccc(NC(=O)Cn2c(=O)n(-c3ccccc3)c(=O)c3oc4ccccc4c32)c(OC)c1` was 0.0652%; that for `COC(=O)CN1C(=O)C(C)(C)Oc2ccc(C(=O)Nc3ccccc3F)cc21` was 6.87%. Then `OCCN(Cc1ccccc1)Cc1ccc(F)c(F)c1`, with -14.9%; and `O=C(NC(C1CC1)C1CC1)C1CCC(=O)N(CCCN2CCCC2=O)C1` (stereo not shown), with -2.49%; and `CCC(=O)Nc1sc(C(=O)Nc2ccccc2OC)c(C)c1C(=O)OC`, with 12.5%. Take `CCOC(=O)c1ccccc1NC(=O)Cn1c(-c2nonc2N)nc2ccccc21`: the “hERG current change (%, negative = inhibition) at 10uM” value was -9.37%. Then `CN(C)c1ccc(-c2nnc(-c3ccccc3F)o2)cc1`, with -8.59%; and `O=C(c1ccccc1)N1CCN(c2n[nH]c(=O)[nH]c2=O)CC1`, with -0.701%.

As to `COc1ccc(-n2ncc3c(N4CCCCC4)ncnc32)cc1`, the “hERG current change (%, negative = inhibition) at 10uM” value is on record as -4.13%. Then `CCN(CC)C(=O)CSc1nnc(-c2ccc(S(=O)(=O)NCc3ccccc3Cl)cc2)o1`, with -3.93%.

Turning to `COc1ccccc1N(C)S(=O)(=O)c1ccc(C(=O)OCC(=O)N2CCC2)cc1`, the “hERG current change (%, negative = inhibition) at 10uM” value amounted to 2.78%. As for `COC(=O)C1=C(c2ccc(C(C)=O)cc2)C[C@@H]2CC[C@H]1N2C`, the “hERG current change (%, negative = inhibition) at 10uM” value was -17.5%. Then `COc1ccc(NC(=O)CCNS(=O)(=O)c2cccc(C(C)=O)c2)cc1S(N)(=O)=O`, with 18.1%; and `COc1cccc(CNC(=O)CCS(=O)(=O)c2cccc3nonc23)c1`, with 11.2%. The value for `CCC1CN(C(=O)NCc2ccc(C)cc2)c2ccccc2O1` (stereo not shown) was -36.5%; that for `CC1=C(C(=O)Nc2ccc(C)cc2C)C(c2ccc(Cl)cc2)n2nc(C(=O)OC(C)C)nc2N1` (stereo not shown) was 5.71%; that for `CC(=O)N1CCN(C(=O)COc2ccc(Br)cc2)CC1` was -17.8%. Then `O=c1[nH]c(=S)[nH]c2nc(-c3cccs3)cc(C(F)(F)F)c12`, with 19.7%. `CCCSc1ccc(C(=O)Nc2ccc(F)cc2F)cn1`: the “hERG current change (%, negative = inhibition) at 10uM” value is listed as 14.5%.

`CSc1nc2ccc(NC(=O)C3=NNC(=O)CC3)cc2s1`: the “hERG current change (%, negative = inhibition) at 10uM” value stood at 5.4%.

On to `O=C(CCCN1C(=O)c2ccccc2C1=O)NCCc1ccc(OC(F)F)cc1`, for which the “hERG current change (%, negative = inhibition) at 10uM” value was -65.3%. With `COc1cccc(NC(=O)N2CCCC2C(=O)Nc2cc(C)ccc2OC)c1` (stereo not shown), the “hERG current change (%, negative = inhibition) at 10uM” value is given as -2.44%. As for `CC1CCc2sc3ncnc(N4CCN(CCO)CC4)c3c2C1` (stereo not shown), the “hERG current change (%, negative = inhibition) at 10uM” value was -33.6%. Then `COc1cc(/C=C/c2c([N+](=O)[O-])c(=O)n(C)c(=O)n2C)cc(OC)c1OC`, with 8.3%. The value for `CC(=O)c1ccc(NC(=O)C(=O)c2cn(CC(=O)N3CCCCC3)c3ccccc23)cc1` was 6.65%.

In the case of `COc1cccc(C(=O)Nc2nnc(C(C)C)s2)c1`, the “hERG current change (%, negative = inhibition) at 10uM” value came to 1.38%. The value for `O=C(Nc1ccc(F)cc1)N(CCCN1CCOCC1)Cc1cc2cc3c(cc2[nH]c1=O)OCCO3` was -25.1%.

`CC(=O)c1ccc(OCC(O)CN2CCN(S(=O)(=O)c3c(C)c(C)cc(C)c3C)CC2)cc1` (stereo not shown): the “hERG current change (%, negative = inhibition) at 10uM” value is 20.5%. The value for `Cc1[nH]n(-c2ccccc2)c(=O)c1N=Nc1c(Cl)cccc1Cl` was 16.3%; that for `CCn1cc(C(=O)NCc2ccc3c(c2)OCO3)c(=O)c2cc(S(=O)(=O)N3CCOCC3)ccc21` was -12.6%; that for `CCOC(=O)NC(NCc1ccccc1Cl)(C(F)(F)F)C(F)(F)F` was -4.23%.

As for `N#C/C(=C\c1cn[nH]c1-c1ccccc1)C(=O)NC1CCCCCC1`, the “hERG current change (%, negative = inhibition) at 10uM” value was -34%. `CCCc1nc2sc3c(=O)n(N)cnc3c2c2c1CCCC2`: the “hERG current change (%, negative = inhibition) at 10uM” value was 9.79%. The value for `COC(=O)c1cc(CSc2ncnc3sccc23)oc1C` was 16.6%; that for `CNCC(C)COc1ccccc1OCc1ccccc1.O=C(O)/C=C\C(=O)O` (stereo not shown) was -32.9%.

Source of the values: publication PMC4336329 (PLoS ONE, 2015).
